Reference: the supplement of paper PMC6531468
Some of the results follow. These are enrichments in a pooled selection; single values are uncertain. Scores sum up all selected molecules that hold the word; the word was not tested alone.

Columns and labels:
Test in all cases: 6-mer SELEX enrichment z-score vs GST control; IMP3 is the RNA-binding protein IGF2BP3; higher = more enriched by binding
[1] = test system: IMP3 KH1-4; settings: construct: KH1-4 (164-579); SELEX round: R4
Experimental: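 SELEX-seq with GST-tagged IMP3 KH1-4 (Pro164-Lys579) and an N40 RNA pool, round 4. 6-mer z-score of sequence-tag enrichment normalised to the corresponding GST SELEX round; RNA k-mers written as DNA (T for U).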

[2] = test system: IMP3 RRM1-2; settings: construct: RRM1-2 (1-163); SELEX round: R2
Experimental: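 SELEX-seq with GST-tagged IMP3 RRM1-2 (Met1-Asn163) and an N40 RNA pool, round 2. 6-mer enrichment z-score normalised to GST SELEX. RNA written as DNA (T = U).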

[3] = target: IMP3 full-length (UniProt O00425); settings: construct: FL IMP3 (1-579); SELEX round: R4
Experimental: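 SELEX-seq with GST-tagged full-length IMP3 and an N40 RNA pool, round 4. Each 6-mer is scored as an enrichment z-score of sequence tags containing it, normalised to the matching GST SELEX round. RNA written as DNA (T = U).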

[4] = test system: IMP3 KH1-2; settings: construct: KH1-2 (164-376); SELEX round: R4
Experimental: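 SELEX-seq with GST-tagged IMP3 KH1-2 (Pro164-Phe376) and an N40 RNA pool, round 4 (stringent 300/600 mM KCl washes). 6-mer z-score of sequence-tag enrichment normalised to the corresponding GST SELEX round; RNA k-mers written as DNA (T for U).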

[5] = test system: IMP3 KH3-4; settings: construct: KH3-4 (377-579); SELEX round: R4
Experimental: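 SELEX-seq with GST-tagged IMP3 KH3-4 (Pro377-Lys579) and an N40 RNA pool, round 4. 6-mer z-score of sequence-tag enrichment normalised to the corresponding GST SELEX round; RNA k-mers written as DNA (T for U).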

IMP3 KH1-4, sequence (chain, as listed by the source): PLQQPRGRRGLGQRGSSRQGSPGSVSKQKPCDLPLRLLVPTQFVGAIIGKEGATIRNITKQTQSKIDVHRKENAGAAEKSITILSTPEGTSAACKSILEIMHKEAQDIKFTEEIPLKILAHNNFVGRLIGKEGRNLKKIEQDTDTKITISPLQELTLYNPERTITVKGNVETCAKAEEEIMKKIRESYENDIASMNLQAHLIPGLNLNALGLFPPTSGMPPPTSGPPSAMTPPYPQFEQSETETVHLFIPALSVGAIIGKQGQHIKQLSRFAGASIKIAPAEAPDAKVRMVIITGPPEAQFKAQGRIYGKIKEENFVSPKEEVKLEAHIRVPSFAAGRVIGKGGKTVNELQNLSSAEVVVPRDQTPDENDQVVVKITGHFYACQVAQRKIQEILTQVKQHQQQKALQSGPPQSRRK
IMP3 KH3-4, sequence (chain, as listed by the source): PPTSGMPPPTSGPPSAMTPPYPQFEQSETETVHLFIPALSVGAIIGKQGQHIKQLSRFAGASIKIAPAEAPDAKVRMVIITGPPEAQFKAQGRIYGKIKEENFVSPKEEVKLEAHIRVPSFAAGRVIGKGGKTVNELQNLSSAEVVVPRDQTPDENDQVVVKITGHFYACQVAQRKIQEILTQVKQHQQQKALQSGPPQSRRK
IMP3 KH1-2, sequence (chain, as listed by the source): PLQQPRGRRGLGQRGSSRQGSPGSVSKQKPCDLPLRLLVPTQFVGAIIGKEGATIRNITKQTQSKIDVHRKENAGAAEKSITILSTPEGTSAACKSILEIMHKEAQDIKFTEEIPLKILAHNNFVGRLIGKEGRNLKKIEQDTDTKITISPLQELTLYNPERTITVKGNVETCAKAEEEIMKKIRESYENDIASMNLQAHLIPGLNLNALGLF
IMP3 RRM1-2, sequence (chain, as listed by the source): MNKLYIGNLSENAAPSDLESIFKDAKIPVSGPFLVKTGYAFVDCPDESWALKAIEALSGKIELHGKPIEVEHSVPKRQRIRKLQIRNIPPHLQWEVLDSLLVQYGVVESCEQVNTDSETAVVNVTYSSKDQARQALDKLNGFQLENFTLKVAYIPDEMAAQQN
UniProt O00425, sequence (O00425 whole entry): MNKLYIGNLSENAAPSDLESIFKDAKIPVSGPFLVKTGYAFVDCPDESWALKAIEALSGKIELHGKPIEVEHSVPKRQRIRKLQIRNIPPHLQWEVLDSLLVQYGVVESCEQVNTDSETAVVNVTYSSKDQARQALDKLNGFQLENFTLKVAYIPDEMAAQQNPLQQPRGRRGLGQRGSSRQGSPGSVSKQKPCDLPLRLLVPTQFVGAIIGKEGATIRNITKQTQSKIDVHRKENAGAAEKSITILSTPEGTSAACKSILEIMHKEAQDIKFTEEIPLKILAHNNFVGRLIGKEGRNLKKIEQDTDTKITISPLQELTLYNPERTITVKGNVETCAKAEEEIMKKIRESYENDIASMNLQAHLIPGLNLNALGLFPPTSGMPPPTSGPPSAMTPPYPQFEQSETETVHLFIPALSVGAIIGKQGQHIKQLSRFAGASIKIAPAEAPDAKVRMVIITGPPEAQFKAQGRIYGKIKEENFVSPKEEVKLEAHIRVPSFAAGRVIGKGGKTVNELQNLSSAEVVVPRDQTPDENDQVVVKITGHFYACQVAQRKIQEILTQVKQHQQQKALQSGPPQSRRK

Sequence | 6-mer SELEX enrichment z-score [1] | 6-mer SELEX enrichment z-score [2] | 6-mer SELEX enrichment z-score [3] | 6-mer SELEX enrichment z-score [4] | 6-mer SELEX enrichment z-score [5]
AACAGG | 0.743 | 0.68 | 1.06 | 0.767 | 0.866
CAATAT | 1.96 | 0.257 | 1.01 | 1.92 | 2.26
ATATCC | -0.314 | -0.265 | -0.643 | -0.254 | -0.499
AATGTC | -0.062 | -0.336 | -0.232 | -0.308 | -0.108
GCCCAA | -2.39 | -1.07 | -1.75 | -2.25 | -2.52
CTGGCC | 0.032 | -0.18 | 0.207 | 0.069 | -0.286
TGAGCT | -1.15 | 0.059 | -0.635 | -1.03 | -0.827
GAGCTT | -0.763 | 0.181 | -0.254 | -0.577 | -0.457
TCGGTC | 0.404 | 0.475 | 0.698 | 0.289 | 0.344
TGGAAC | -0.145 | -0.354 | -0.253 | -0.383 | -0.395
CATTGC | 0.616 | 0.825 | 0.849 | 0.519 | 0.192
GGAGTA | 0.262 | -0.206 | 0.124 | 0.227 | 0.391
TCGCGT | -0.975 | 0.34 | -0.118 | -0.717 | -0.781
CCCATA | -0.073 | -0.213 | -0.414 | 0.011 | -0.579
TCCGGG | -0.68 | -0.127 | 0.111 | -0.421 | -0.441
CGTCTC | -0.3 | 0.593 | 0.507 | -0.089 | -0.032
CAGTGC | 0.167 | 0.393 | 0.777 | 0.065 | -0.123
GCCAAC | -0.695 | 0.035 | -0.05 | -0.613 | -1.04
AGGCTT | 0.19 | 0.46 | 0.406 | 0.228 | 0.59
GTATAT | 0.682 | 0.056 | 0.146 | 0.554 | 1.05
GCGGAT | -0.251 | 0.027 | 0.109 | -0.184 | -0.066
TAGGAT | 0.469 | 0.482 | 0.065 | 0.33 | 0.712

Sequence | 6-mer SELEX enrichment z-score [1] | 6-mer SELEX enrichment z-score [2] | 6-mer SELEX enrichment z-score [3] | 6-mer SELEX enrichment z-score [4] | 6-mer SELEX enrichment z-score [5]
CACAGG | 0.888 | 1.82 | 2.12 | 0.788 | 0.442
AGGTTA | 0.187 | 0.232 | 0.016 | 0.066 | 0.296
TTGTGC | -0.27 | 0.264 | -0.316 | -0.344 | -0.272
GGCCGT | 0.017 | -0.001 | 0.631 | 0.143 | 0.178
CTCTAG | -0.504 | 0.13 | -0.278 | -0.429 | -0.379
GGATAG | 0.682 | -0.073 | 0.154 | 0.593 | 0.879
AAGATG | 0.791 | -1.21 | -0.664 | 0.448 | 1.27
TGGCTA | 0.002 | 0.257 | 0.021 | 0.075 | 0.31
GTAATA | 0.541 | -0.446 | -0.185 | 0.397 | 0.899
ATTCCA | 0.883 | 0.437 | 0.162 | 0.822 | 0.412
TATAGC | 0.521 | 0.051 | 0.135 | 0.467 | 0.682
CACGAG | -2.65 | -0.089 | -0.392 | -2.49 | -2.41
TCCACG | -0.328 | -0.171 | -0.266 | -0.496 | -0.84
GGATCG | -0.027 | -0.096 | 0.151 | -0.12 | 0.009
GGGCAC | 0.787 | 0.396 | 1.67 | 0.866 | 0.819
ATTATG | 1.39 | 0.028 | 0.253 | 1 | 1.7
TTCTGA | 0.315 | -0.033 | -0.013 | 0.402 | 0.321
TGAATC | 0.151 | -0.193 | -0.265 | -0.039 | 0.087
TATTCT | 0.803 | 0.447 | 0.247 | 0.81 | 0.859
TGCCTC | -0.642 | 0.032 | -0.323 | -0.579 | -0.71
TAAACG | -0.449 | -1.38 | -1.21 | -0.667 | -0.039
AGGCCG | 0.43 | -0.282 | 0.81 | 0.499 | 0.398

Sequence | 6-mer SELEX enrichment z-score [1] | 6-mer SELEX enrichment z-score [2] | 6-mer SELEX enrichment z-score [3] | 6-mer SELEX enrichment z-score [4] | 6-mer SELEX enrichment z-score [5]
TCCCGC | -0.615 | -0.184 | -0.213 | -0.435 | -0.982
GATCAG | 0.372 | 0.349 | 0.679 | 0.315 | 0.317
GTGTCG | -0.377 | 0.363 | 0.124 | -0.293 | -0.223
AGACAC | 0.238 | 0.949 | 0.351 | 0.306 | -0.032
AGCAGC | 0.194 | 0.623 | 1.14 | 0.177 | -0.03
AACAAC | 0.261 | 0.911 | 0.349 | 0.899 | 0.334
CCTCAG | -0.645 | 0.312 | -0.017 | -0.66 | -0.807
GTTTCT | -0.115 | 0.496 | 0.066 | 0.011 | 0.076
TATGAA | 1.38 | -0.858 | -0.386 | 0.98 | 2.09
GATCTT | -0.006 | 0.263 | 0.018 | -0.038 | 0.08
CTACTG | 0.187 | -0.094 | -0.229 | 0.269 | -0.004
TCTAAA | -0.156 | -0.628 | -0.734 | -0.191 | 0.012
CCGACT | -1.22 | -0.687 | -1.04 | -0.997 | -1.32
CTTACC | -0.757 | -0.303 | -0.837 | -0.721 | -1.01
CTATGT | 0.269 | 0.235 | -0.069 | 0.133 | 0.305
GCTCTG | -0.118 | 0.161 | 0.191 | -0.027 | -0.042
TCGCAA | 0.167 | 0.049 | 0.138 | 0.174 | 0.016
TGGCAT | 0.689 | 0.675 | 1.33 | 0.482 | 0.592
AGCTAC | -0.474 | 0.206 | -0.113 | -0.441 | -0.535
TTGGAC | -0.36 | 0.036 | -0.162 | -0.337 | -0.382
CACGGA | 0.449 | -0.157 | 0.44 | 0.038 | 0.048
